According to patent publication US3959283A, “Amino-derivatives of 1,4-benzodioxan” (Laboratoire L. Lafon, priority 1974, dated 1976):
Where a name gives a salt, the structure may show the parent alone.

Legend:
[1] = system: femoral and vertebral arteries; assay: Local administration into femoral or vertebral artery of dogs (product of Example 5); format: in vivo; conditions: injected locally into femoral or vertebral artery
dogs [2] = assay: General administration (intravenous, intraduodenal) to dogs (product of Example 5); format: in vivo
Description: Intravenous administration:
The following results are observed:

dogs [3] = assay: Vasodilating properties of the product of Example 6 in anaesthetised dogs; format: in vivo
Description: When administered intra-arterially, the product of Example 6 is injected directly into the femoral artery. The flow rate is increased by 200% from a dose of 10 μg.

adrenergic receptors [4] = assay: α-blocking activity of the product of Example 6; format: in vivo, dogs
Description: The product is α-blocking from a dose of 5 mg/kg administered intravenously.

dogs [5] = assay: Cardiovascular action of the product of Example 7 in anaesthetised dogs; format: in vivo; conditions: i.v., from 2.5 mg/kg
adrenergic receptors [6] = assay: Adrenolytic action of the product of Example 7 (reversal of the hypertension due to adrenalin); format: in vivo, dogs
[7] = Acute intravenous toxicity in mice, products of Examples 10 to 13 (LD50); conditions: mouse, in vivo, i.v., group of male and female mice
Description: (a) determined on a group of male and female mice,
(b) determined on a group consisting solely of female mice.

adrenergic receptors [8] = assay: Inhibition/reversal of tension effects of adrenalin, intravenous (products of Examples 11 to 13); format: in vivo; conditions: for effect of adrenalin (hypertension): successive doses
Description: the doses of CRL 40,150 from 0.5 to 4 mg/kg being administered successively.

dogs [9] = assay: Hypotensive effect in dogs anaesthetised with Nembutal; format: in vivo
Description: This hypotension manifests itself especially in a decrease in the differential pressure, the lowering of the diastolic pressure being greater than that of the systolic pressure.

adrenalin = assay: Effect on the amines and reflexes: adrenalin; conditions: in vivo
Description: (§1) In Table III below, the effects of the products on the amines and the reflexes have been summarised.

acetylcholine = assay: Effect on the amines and reflexes: acetylcholine; conditions: in vivo
Description: as §1

[10] = system: reflex relating to occlusion of the carotids; assay: Effect on the amines and reflexes: occlusion of the carotids; conditions: in vivo
Description: as §1

β-receptors = assay: Effects of adrenalin, isoprenalin and propanolol on flow rates after intraduodenal product of Example 11 (Experiments C and D); conditions: for changes in the graph after i.v. and intraduodenal injections: Experiment D, after product 15 mg/kg ID
adrenergic receptors [11] = assay: Oral α-blocking activity in dogs (hypertensive effects of adrenalin); format: in vivo; conditions: orally
[12] = i.v. 2.5, 5 and 10 mg/kg, one test intraduodenal 10 mg/kg
[13] = Experiment C, adrenalin 2 mcg/kg i.v. after product, 2 minutes
[14] = Experiment C, adrenalin 2 mcg/kg i.v. after product, 5 minutes
[15] = Experiment C, adrenalin 2 mcg/kg i.v. after product, 10 minutes
[16] = Experiment C, adrenalin 10 mcg/kg ID at 15 hr. 20 min, 15 minutes
[17] = Experiment C, adrenalin 10 mcg/kg ID at 15 hr. 20 min, 40 minutes
[18] = Experiment C, adrenalin 10 mcg/kg ID at 16 hr. 3 min, 10 minutes

For `CC(C)(C)c1ccc2c(c1)OCC(CN1CCN(CCO)CC1)O2` (stereo not shown) [Example 5, 1-[2-(6- or 7-{tertiarybutyl}-1,4-benzodioxanyl)-methyl]-4-(2-hydroxyethyl)-piperazine dihydrochloride], the “femoral and vertebral flow rates” value [1] was “increases both these flow rates in proportion to the doses”, the “preference between flow rates” value [1] was “a preference for the femoral flow rate” and the vertebral dilating action (dogs [2]; i.v.) was “no vertebral dilating action”. For the same compound, the pulse rate effect (dogs [2]; i.v., 15 mg/kg) was “bradycardia”, the “femoral vasodilating action, maximum increase” value (dogs [2]; i.v., from 3.5 mg/kg) was 60% and the “effect on the AP” value (dogs [2]; i.v., up to 15 mg/kg) was “no effect on the AP”. The vasodilating effect (dogs [2]; intraduodenal, 3.5, 7, 15 and 35 mg/kg) was “no vasodilating effect”, the pulse rate (dogs [2]; intraduodenal, from 7 mg/kg) was “the pulse rate decreases” and the “vasodilating effect (summary)” value (dogs [2]; summary) was “exclusively peripheral and very moderate vasodilating effect”.
For `CCC(=O)OCCN1CCN(CC2COc3ccccc3O2)CC1` (stereo not shown) [Example 6, 1-[2-(1,4-Benzodioxanyl)-methyl]-4-[2-(propionyloxy)-ethyl]-piperazine dihydrochloride], the “femoral flow rate effect (conclusion)” value (dogs [3]; conclusion) was “of short duration and is not reproducible”, the femoral flow rate (dogs [3]; [12]) was “increased in the tests wherein an increase in the pulse rate is observed” and the intraventricular pressure (dogs [3]; [12]) was “decreased”. For the same compound, the pulse rate (dogs [3]; [12]) was “either is not altered (2 tests) or is increased”, the ratio dp/dt (dogs [3]; [12]) was “decreased” and the “time to disappearance of the femoral flow effect” value (dogs [3]; [12]) was 15 min. For the same compound, the vertebral flow rate (dogs [3]; [12]) was “only increases in one of the two tests wherein the pulse rate was increased”, the hypotensive effect (dogs [3]; i.v. over 5 minutes, 2.5, 5 and 10 mg/kg, one test intraduodenal 10 mg/kg) was “A hypotensive effect proportional to the dose” and the “increase in femoral flow rate” value (dogs [3]; injected into the femoral artery, from a dose of 10 μg) was 200%. For the same compound, the “passage through the intestinal barrier” value (dogs [3]; intraduodenal) was “passes through the intestinal barrier”, the “dose from which the product is α-blocking” value (adrenergic receptors [4]; i.v.) was no less than 5 mg/kg and the “dose at which activity is found again intraduodenally” value (adrenergic receptors [4]; intraduodenal) was 10 mg/kg.
In the case of `CC(=O)OCCN1CCN(CC2COc3ccccc3O2)CC1` (stereo not shown) [Example 7, 1-[2-(1,4-Benzodioxanyl)-methyl]-4-[2-acetyloxy)-ethyl]-piperazine dihydrochloride], the pulse rate (dogs [5]) is reported as “does not vary markedly”, the arterial pressure effect (dogs [5]; both dogs) is reported as “hypotension” and the left ventricular pressure (dogs [5]; both dogs) is reported as “decrease”. The ratio dp/dt (dogs [5]; both dogs) was “decrease”, the systolic ejection time (dogs [5]; both dogs) was “decrease” and the “α-lytic action (conclusion)” value (adrenergic receptors [6]; conclusion) was “α-lytic”. For the same compound, the “dose from which adrenolytic action is demonstrated” value (adrenergic receptors [6]; i.v., reversal of the hypertension due to adrenalin) was no less than 2.5 mg/kg.
With `OC(CN1CCN(CC2COc3ccccc3O2)CC1)c1ccccc1` (stereo not shown) [Example 12, 1-[2-(1,4-Benzodioxanyl)-methyl]-4-[(2-hydroxy-2-phenyl)-ethyl]-piperazine dihydrochloride] the LD50 [7] was 40 mg/kg, the “effect of adrenalin (hypertension)” value (adrenergic receptors [8]; after 0.5 mg/kg i.v.) was 67% and the “effect of adrenalin (hypertension)” value (adrenergic receptors [8]; after 1 mg/kg i.v.) was 36%. The “effect of adrenalin (hypertension)” value (adrenergic receptors [8]; after 2 mg/kg i.v.) was 43%, the “hypertensive effect of adrenalin” value (adrenergic receptors [8]; i.v., after each injection) was “gradually reduces the hypertensive effect of adrenalin and reverses the tension effects of the latter” and the hypotension (dogs [9]) was 37%. The “Effect on the amines and reflexes: adrenalin” value (adrenalin) was “reversal”, the “Effect on the amines and reflexes: acetylcholine” value (acetylcholine) was “no change” and the “Effect on the amines and reflexes: reflex relating to occlusion of the carotids” value [10] was “unchanged”.
For `CNCC(O)c1ccc(O)c(O)c1` (stereo not shown) [adrenalin], the “effect of adrenalin after blocking of the α-receptors” value (β-receptors; Experiment C) was “demonstrate the β-stimulating effect of this amine”, the femoral flow rate (β-receptors; [13]) was “does not change” and the “increase in vertebral flow rate” value (β-receptors; [13]) was 200%. For the same compound, the vertebral flow rate (β-receptors; [13]) was 60 mL/min, the femoral flow rate (β-receptors; [14]) was 108 mL/min and the “increase in femoral flow rate” value (β-receptors; [14]) was 50%. For the same compound, the “increase in vertebral flow rate” value (β-receptors; [14]) was 24%, the vertebral flow rate (β-receptors; [14]) was 68 mL/min and the “increase in femoral flow rate” value (β-receptors; [15]) was 39%. For the same compound, the “increase in vertebral flow rate” value (β-receptors; [15]) was 80%, the “increase in femoral flow rate” value (β-receptors; [16]) was 56% and the “increase in vertebral flow rate” value (β-receptors; [16]) was 190%. The “increase in femoral flow rate” value (β-receptors; [17]) was 50%, the “increase in vertebral flow rate” value (β-receptors; [17]) was 120% and the femoral flow rate (β-receptors; [18]) was 125 mL/min. The “increase in femoral flow rate” value (β-receptors; [18]) was 73%, the “increase in vertebral flow rate” value (β-receptors; [18]) was 220% and the vertebral flow rate (β-receptors; [18]) was 64 mL/min. The “changes in the graph after i.v. and intraduodenal injections” value (β-receptors) was “do not cause substantial changes”.
In the case of `OCCN1CCN(CC2COc3ccccc3O2)CC1` (stereo not shown) [free base, 1-[2-(1,4-benzodioxanyl)-methyl]-4-(2-hydroxyethyl)-piperazine, reference compound], the α-blocking activity (adrenergic receptors [11]) is reported as “does not show any α-blocking activity”.
With `CC(C)NCC(O)c1ccc(O)c(O)c1` (stereo not shown) [isoprenalin] the “changes in the graph after i.v. and intraduodenal injections” value (β-receptors) was “do not cause substantial changes”.
